No constants are given. Whether binding was seen depends on the method and setting. In cells and extracts the contact can be indirect. Some entries that bind do so weakly or less than the wild type. For part of these data: Where a sequence is shown, tags or fusion partners need not be part of it.

Sequences of proteins named here, by UniProt entry; tags and fusion partners are left off.
UniProt A5D8V6: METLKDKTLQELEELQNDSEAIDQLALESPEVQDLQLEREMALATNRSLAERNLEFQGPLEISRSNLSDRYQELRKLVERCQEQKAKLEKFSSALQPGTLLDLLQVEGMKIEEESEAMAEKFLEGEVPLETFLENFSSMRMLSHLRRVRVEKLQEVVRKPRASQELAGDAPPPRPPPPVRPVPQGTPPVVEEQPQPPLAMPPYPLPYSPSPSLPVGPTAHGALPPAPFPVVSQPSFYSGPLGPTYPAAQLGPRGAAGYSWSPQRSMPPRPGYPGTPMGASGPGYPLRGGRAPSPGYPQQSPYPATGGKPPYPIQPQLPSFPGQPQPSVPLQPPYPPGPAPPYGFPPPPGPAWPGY

The target of one assay is YFP–TSG101 (UniProt Q99816). Nature of the assay: co-IP; GFP-trap magnetic agarose on lysates of HeLa cells stably expressing a YFP-tagged bait (YFP–TSG101 in HeLa^WT or HeLa^ΔUMAD1; YFP–UMAD1 in HeLa^ΔUMAD1), >12 h at 4°C; western blot for endogenous proteins; unfused YFP as control.
The target of another assay is YFP–UMAD1 (human) (UniProt C9J7I0). The assay is described as above.
The target in another assay is T1, HA–VPS37D (UniProt Q86XT2).
T1 sequence: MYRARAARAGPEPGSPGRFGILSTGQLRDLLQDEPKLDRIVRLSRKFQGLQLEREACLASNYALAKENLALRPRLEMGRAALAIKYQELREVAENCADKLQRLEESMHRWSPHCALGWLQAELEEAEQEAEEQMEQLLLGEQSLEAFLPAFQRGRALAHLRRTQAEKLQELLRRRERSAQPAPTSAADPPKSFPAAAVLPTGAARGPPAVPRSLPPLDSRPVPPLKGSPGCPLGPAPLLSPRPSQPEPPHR
The experiment in a line: pull-down; 293T cells co-transfected with GST–TSG101, Myc–VPS28, HA–UMAD1 (wild type or mutant) and one HA-tagged VPS37 subunit; lysate on glutathione–Sepharose beads 3 h at 4°C (50 mM Tris-HCl pH 7.4, 150 mM NaCl, 5 mM EDTA, 5% glycerol, Triton X-100); anti-HA blot; unfused GST as control.

Another assay concerns the target GST–TSG101 (UniProt Q99816). The assay is described as above.
The target in a further assay is HA–VPS37C (UniProt A5D8V6). The assay is described as above.
For a further assay, the target named is HA–VPS37B (UniProt Q9H9H4). The description is as above.

B1: endogenous CEP55 (protein, UniProt Q53EZ4 1-464)
chain: MSSRSTKDLIKSKWGSKPSNSKSETTLEKLKGEIAHLKTSVDEITSGKGKLTDKERHRLLEKIRVLEAEKEKNAYQLTEKDKEIQRLRDQLKARYSTTTLLEQLEETTREGERREQVLKALSEEKDVLKQQLSAATSRIAELESKTNTLRLSQTVAPNCFNSSINNIHEMEIQLKDALEKNQQWLVYDQQREVYVKGLLAKIFELEKKTETAAHSLPQQTKKPESEGYLQEEKQKCYNDLLASAKKDLEVERQTITQLSFELSEFRRKYEETQKEVHNLNQLLYSQRRADVQHLEDDRHKTEKIQKLREENDIARGKLEEEKKRSEELLSQVQFLYTSLLKQQEEQTRVALLEQQMQACTLDFENEKLDRQHVQHQLHVILKELRKARNQITQLESLKQLHEFAITEPLVTFQGETENREKVAASPKSPTAALNESLVECPKCNIQYPATEHRDLLVHVEYCSK
Regarding B1, the binding entry with YFP–TSG101 and with YFP–UMAD1 (human) was “binds” in each case.

B2: HA–UMAD1^M1 (V89P90F91/AAA) (protein, UniProt C9J7I0 1-137)
chain: MFHFFRKPPESKKPSVPETEADGFVLLGDTTDEQRMTARGKTSDIEANQPLETNKENSSSVTVSDPEMENKAGQTLENSSLMAELLSDAAATLAPHVLAVQGTITDLPDHLLSYDGSENLSRFWYDFTLENSVLCDS
Consider B2, for which the binding result with HA–VPS37D, with GST–TSG101, with HA–VPS37C and in the assay with HA–VPS37B was “no binding” throughout.

The values above are taken from paper PMC10445733.
